Assay results taken from PubChem BioAssay AID651687 (Broad Institute, 2012).
In all, about 350,000 compounds went through this assay and about 600 (0.17%) were called active. The inconclusive results got no clear call from the source; some entries with a clear call stand among them for comparison.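 The calls were made as follows: active = every replicate shows inhibition of at least 40%; inconclusive = mean inhibition at least 40% but some replicate below; inactive = the rest.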

assay: inhibitors of PGC1a acetylation signal, primary screen, cell-based, U2OS, AlphaScreen, inhibitor mode (AID 651687); settings: AlphaScreen anti-acetyl-lysine, at 15.6 µM, stronger effect = higher value, with virally co-expressed GCN5 acetyltransferase;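 also: 0% = neutral control wells and 100% = positive control wells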

| Structure (SMILES) | inhibition |
| --- | --- |
| CCOC(=O)Cn1cc(/C=C(/C#N)C(=O)NC(C)C)c2ccccc21 | inconclusive: 48.9% |
| COc1ccccc1-c1ccc([C@@H]2[C@H](CO)N(C(C)=O)C23CN(C(C)=O)C3)cc1 | inconclusive: 58.2% |
| CC(C)NC(=O)N(C)C[C@H]1OCCCC[C@@H](C)Oc2ccc(NC(=O)CCCN(C)C)cc2C(=O)N([C@@H](C)CO)C[C@@H]1C | inconclusive: 51% |
| COc1ccccc1OCCn1cc(/C=N/NC(=O)c2ccncc2)c2ccccc21 | inconclusive: 49.6% |
| Cc1ccccc1S(=O)(=O)NCC[C@@H]1CC[C@@H](NC(=O)C2CCOCC2)[C@H](CO)O1 | inconclusive: 58.1% |
| CCCNC(=O)N[C@H]1CC[C@@H](CCn2cc(C3CCCCC3)nn2)O[C@@H]1CO | inactive: 2.63% |
| COc1ccc(NC(=O)/C(Cl)=C(/Cl)S(=O)Cc2ccccc2)cn1 (stereo not given) | active: 71.4% |
| O=C(CCCc1cccs1)NCCc1c[nH]c2ccccc12 | inconclusive: 41.5% |
| COc1ccc(NC(=O)/C(Cl)=C(/Cl)S(=O)Cc2ccc(Cl)cc2)cn1 (stereo not given) | active: 100% |
| COc1ccc(-c2cnc3c(c2)C(=O)N([C@H](C)CO)C[C@H](C)[C@@H](CN(C)C(=O)C2CC2)O3)cc1 | active: 111% |
| CCc1nc(N)nc(N)c1-c1ccc(Cl)cc1 | active: 48.1% |
| C/C(=N\NC(=O)CN1CCCCC1)c1ccccc1O | active: 43.8% |
| CC(C)(C)c1ccc(OCCSc2nc3ccccc3n2CC(=O)O)cc1 | inconclusive: 41.3% |
| CNC[C@@H]1OCCCC[C@H](C)Oc2ccc(NC(=O)CCC(F)(F)F)cc2C(=O)N([C@H](C)CO)C[C@H]1C | inactive: 8.61% |
| Cn1c(CN2CCCC2)nc2cc(NC(=O)COc3ccc(Cl)cc3)ccc21 | active: 52.3% |
| CCn1c(SCC(=O)Nc2ccc(OC)c(OC)c2)nnc1-c1cccs1 | inconclusive: 41.3% |
| COc1ccc(NC(=S)Nc2ccccn2)c(OC)c1 | inactive: 4.89% |
| Cc1ccc(CNC(=O)c2ccc(CS(=O)(=O)c3ccccc3)o2)cc1 | active: 43.9% |
| CC(=O)c1c(COC(=O)c2ccccc2)nc2ccccc2[n+]1[O-] | inconclusive: 55.2% |
| CCCNC(=O)N1C[C@H](C)[C@H](OC)CN(C)C(=O)c2cc(NC(=O)C3CCC3)ccc2OC[C@H]1C | inactive: 12.5% |
| CN(Cc1ccccc1)S(=O)(=O)c1ccc(S(=O)(=O)N(Cc2ccc(F)cc2)C2CCCC2)cc1 | inconclusive: 44% |
| C[C@@H]1CN([C@H](C)CO)C(=O)c2cc(NC(=O)Nc3ccc4c(c3)OCO4)ccc2O[C@@H]1CN(C)C | inactive: 1.39% |
| C[C@H]1CN([C@@H](C)CO)C(=O)c2ccccc2-c2ccccc2CO[C@H]1CN(C)S(=O)(=O)c1ccccc1F | inactive: -24% |
| CCOc1ccc(C(=O)N/N=C(\c2ccccc2)c2ccccn2)cc1 | active: 80.3% |
| C[C@@H]1CN([C@@H](C)CO)C(=O)c2cccc(NC(=O)C3CCCCC3)c2O[C@@H]1CN(C)CC1CCCCC1 | inconclusive: 44% |

| Structure (SMILES) | inhibition |
| --- | --- |
| O=C(COc1cccnc1[N+](=O)[O-])NCCc1ccc(Cl)cc1 | inconclusive: 49.1% |
| C[C@@H]1CN([C@@H](C)CO)C(=O)c2cc(NS(=O)(=O)c3ccc(F)cc3)ccc2O[C@@H]1CN(C)S(=O)(=O)c1ccc(Cl)cc1 | inconclusive: 43.2% |
| COc1ccc(S(=O)(=O)N(C)C[C@H]2Oc3ccc(NC(=O)CCN4CCOCC4)cc3C(=O)N([C@@H](C)CO)C[C@@H]2C)cc1 | inconclusive: 49.4% |
| COc1cccc(C2=CC(c3ccc(N(C)C)cc3)n3nnnc3N2)c1 (stereo not given) | inactive: -17.6% |
| C[C@H](CO)N1C[C@H](C)[C@H](CN(C)Cc2ccc(Oc3ccccc3)cc2)Oc2c(NC(=O)Nc3ccc4c(c3)OCO4)cccc2C1=O | inconclusive: 40.1% |
| O=C(Nc1cccc(F)c1)N1CC(=O)N2[C@@H](CO)[C@@H](c3ccc(C#Cc4cccnc4)cc3)[C@@H]2C1 | inconclusive: 40.7% |
| COC(=O)C1=C(C)NC2=C(C(=O)c3ccccc32)C1c1cccc(OC)c1 (stereo not given) | inactive: -10.2% |
| O=C(c1ccccc1)N1C[C@@H]2[C@H](c3ccccc31)[C@@H](CO)N2S(=O)(=O)c1ccccc1 | inactive: 4.41% |
| C[C@@H](C(=O)Nc1cc(C(F)(F)F)ccc1N1CCOCC1)N1C(=O)C2CC=CCC2C1=O (stereo not given in full) | inconclusive: 41.4% |
| O=C(CSc1nnc(-c2cccc(S(=O)(=O)N3CCCC3)c2)n1-c1ccccc1)Nc1ccc(C(=O)O)cc1 | inactive: 13.8% |
| CCSc1nc(-c2ccc(OC)cc2)cc(-c2ccccc2)c1C#N | inactive: 24.3% |
| Cn1cnc(S(=O)(=O)N2C[C@@H](O)COC[C@H]3O[C@H](CC(=O)NCc4cc(F)cc(F)c4)CC[C@@H]32)c1 | inconclusive: 42.5% |
| CCCNC(=O)N1C[C@@H](C)[C@H](OC)CN(C)C(=O)c2cc(NC(=O)C3CCC3)ccc2OC[C@H]1C | inactive: -9.84% |
| Cc1cc(C=O)c(C)n1-c1ccc(NC2CCCC2)c([N+](=O)[O-])c1 | inconclusive: 50.5% |
| COc1ccc2c(c1)CC/C(=C/c1cc(OC)c(OC)c(OC)c1)C2=O | inconclusive: 52.5% |
| O=C(c1ccc(F)cc1)N(C(=O)c1ccc(F)cc1)c1ncccn1 | inconclusive: 43.5% |
| Cc1ccc(-c2ccc(/C=N/NC(=O)Cc3nnc(N)s3)o2)cc1Cl | inconclusive: 43.5% |
| CCN1CC=C2C(C#N)=C(N)C(C#N)(C#N)[C@H](c3cccc(OC)c3OC)[C@H]2C1 | inconclusive: 40.9% |
| C[C@H]1CCC/C=C/[C@@H]2C[C@H](O)C[C@H]2[C@H](O)[C@H](S(=O)c2ccc(O)cc2)CC(=O)O1 (stereo not given in full) | active: 66.3% |
| Clc1ccccc1CN1CCN(c2ncccn2)CC1 | inactive: -1.47% |
| CCCNC(=O)N(C)C[C@H]1Oc2cc(C#CC(C)C)ccc2S(=O)(=O)N([C@@H](C)CO)C[C@H]1C | inconclusive: 51.4% |
| C[C@@H]1CN([C@@H](C)CO)S(=O)(=O)c2ccc(C#Cc3ccncc3)cc2O[C@H]1CN(C)C(=O)C1CCCCC1 | inactive: -10.8% |
| O=C(OCc1nc(-c2ccccc2)oc1COC(=O)c1ccco1)c1ccco1 | inconclusive: 44% |
| C[C@H](CO)N1C[C@H](C)[C@@H](CN(C)Cc2cncnc2)Oc2cc(C#CC3CC3)ccc2S1(=O)=O | inconclusive: 49.8% |
| CO[C@H]1CN(C)C(=O)c2ccc(NC(C)=O)cc2OC[C@@H](C)N(Cc2nccs2)C[C@H]1C | inactive: 1.17% |

| Structure (SMILES) | inhibition |
| --- | --- |
| O=C(C[C@H]1C[C@@H]2c3cc(NC(=O)NC4CCCC4)ccc3O[C@@H]2[C@@H](CO)O1)NCc1ccncc1 | inactive: -2.99% |
| Cc1nc2nc(COc3ccccc3)nn2c(C)c1Cl | inactive: 2.12% |
| O=S(=O)(c1ccc(Br)cc1)n1ccc2ccccc21 | inconclusive: 40.2% |
| CCOC(=O)NC(=S)Nc1cccc(NC(=S)NC(=O)OCC)c1 | inconclusive: 40.5% |
| CNC[C@@H]1Oc2ncc(-c3cccc(C(=O)N(C)C)c3)cc2C(=O)N([C@H](C)CO)C[C@@H]1C | inactive: 28.6% |
| COc1ccc2nc(C)cc(SCC(=O)Nc3c(C)cc(C)cc3C)c2c1 | inactive: -1.41% |
| COc1cccc(-n2c(-c3cccc(S(=O)(=O)N(C)C)c3)n[nH]c2=S)c1 | inconclusive: 55.7% |
| CCCC(=O)N1CCC2(CC1)CN(C(=O)C1CCOCC1)[C@H](CO)c1[nH]c3cc(OC)ccc3c12 | inactive: 5.2% |
| CC(=O)N(c1ccccc1)c1nnc(-c2cnc(C)cn2)s1 | inconclusive: 58% |
| O=C(OCCCN1CCCCC1)c1ccc(O)cc1 | inconclusive: 45.9% |
| C=CCn1c(=NC(=O)c2ccc(S(=O)(=O)N3CCCC3)cc2)sc2cc(NC(C)=O)ccc21 | inconclusive: 51.1% |
| CCOc1ccc(N(C(=O)Nc2ccccc2)C2=NCCC2)cc1 | inconclusive: 44.4% |
| COC(=O)c1ccc[n+](CC(=O)c2ccc(Br)cc2)c1 | inconclusive: 43.3% |
| CSCC(O)Cn1[nH]c(=O)c2cc(Cl)c(Cl)cc2c1=O (stereo not given) | active: 83.7% |
| C[C@@H]1CN([C@H](C)CO)C(=O)CCCn2nncc2CO[C@H]1CN(C)C(=O)Nc1cccc(F)c1 | inconclusive: 56.8% |
| COc1cccc(C(=O)Nn2cnnc2)c1OC | active: 74.9% |
| COc1ccc(C(=O)N/C(=C/c2cccs2)C(=O)NC(C)(C)C)cc1OC | active: 67.2% |
| C[C@@H]1CN([C@H](C)CO)C(=O)c2cc(NC(=O)Cn3cnnn3)ccc2O[C@H]1CN(C)Cc1ccc(C(=O)Nc2ccccc2N)cc1 | inactive: -5.58% |
| COc1ccc2c(c1)c1nc3ccccc3nc1n2CC(=O)OC(C)C | inconclusive: 46.2% |
| COc1ccc(CN(C)C[C@H]2Oc3ccc(NC(=O)Cc4cn(C)c5ccccc45)cc3CC(=O)N([C@@H](C)CO)C[C@@H]2C)cc1 | inconclusive: 40.9% |
| Cc1ccc(S(=O)(=O)C(C#N)c2nc3ccccc3nc2N2CCCC2)cc1 (stereo not given) | inconclusive: 49.7% |
| COc1ccc(/C=N/Nc2nc3ccccc3[nH]2)c(OC)c1OC | inconclusive: 50.3% |
| CCC(C)(C)n1nnnc1C(c1cccnc1)N1CCCC(C)C1 (stereo not given) | inconclusive: 43.1% |
| COc1ccc(NC(=O)Nc2ccc3c(c2)C(=O)N([C@@H](C)CO)C[C@H](C)[C@H](CN(C)C(=O)c2ccccc2)OCCCC[C@H](C)O3)cc1 | inactive: 8.88% |
| CCN(C[C@H]1[C@@H](c2ccccc2)[C@@H](CO)N1C(C)=O)C(=O)c1ccccn1 | inactive: -8.84% |
